Read-outs that look alike come from different tables or passages of the source. *1 amine or outer side, *2 acyl side, *3 side chain or, on linkers, in order; H or OH if unused. Where a SMILES comes first, the peptide text is derived from it. [ ]: non-standard residue; d: D form. X3 = CCC(=O)NCCCCNC(=O)/N=C(\N)NCCC[C@H](N[*:1])C(=O)[*:2]
What was measured:
NTS2R = NTS2R (Homo sapiens, UniProt O95665); test: radioligand competition binding with [3H]UR-MK300 at membranes of HEK293T-hNTS2R cells; conditions: [3H]UR-MK300, membranes of HEK293T-hNTS2R cells; read-out: NTS2R pK i ± SEM (converted)
NTS1R [1] = target: T1, NTS1R (Homo sapiens, UniProt P30989); test: flow cytometric competition binding at HT-29 cells using 19 or 21 as labeled probe; conditions: for Hill coefficient of the displacement curve: 4-parameter logistic fit, mean ± SEM
NTS1R [2] = target: T1, NTS1R; conditions: cited from earlier work
NTS1R [3] = target: T1, NTS1R; conditions: for EC50: enhancement of NTS1R binding of 21, HT-29 cells, 23 °C, 21 c = 0.01 nM, biphasic curve

T1 sequence (P30989 whole entry): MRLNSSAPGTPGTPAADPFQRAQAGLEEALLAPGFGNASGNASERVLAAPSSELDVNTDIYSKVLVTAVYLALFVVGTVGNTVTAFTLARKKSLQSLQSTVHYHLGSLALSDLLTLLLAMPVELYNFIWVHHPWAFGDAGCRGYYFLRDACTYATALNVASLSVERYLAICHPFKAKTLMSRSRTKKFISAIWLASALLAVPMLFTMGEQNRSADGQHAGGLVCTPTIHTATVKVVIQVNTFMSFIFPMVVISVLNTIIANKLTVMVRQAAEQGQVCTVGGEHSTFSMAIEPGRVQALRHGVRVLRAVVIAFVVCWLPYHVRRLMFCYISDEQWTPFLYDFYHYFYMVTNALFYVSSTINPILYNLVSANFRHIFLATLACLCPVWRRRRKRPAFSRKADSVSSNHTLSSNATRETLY
Chain of UniProt O95665 (O95665 whole entry): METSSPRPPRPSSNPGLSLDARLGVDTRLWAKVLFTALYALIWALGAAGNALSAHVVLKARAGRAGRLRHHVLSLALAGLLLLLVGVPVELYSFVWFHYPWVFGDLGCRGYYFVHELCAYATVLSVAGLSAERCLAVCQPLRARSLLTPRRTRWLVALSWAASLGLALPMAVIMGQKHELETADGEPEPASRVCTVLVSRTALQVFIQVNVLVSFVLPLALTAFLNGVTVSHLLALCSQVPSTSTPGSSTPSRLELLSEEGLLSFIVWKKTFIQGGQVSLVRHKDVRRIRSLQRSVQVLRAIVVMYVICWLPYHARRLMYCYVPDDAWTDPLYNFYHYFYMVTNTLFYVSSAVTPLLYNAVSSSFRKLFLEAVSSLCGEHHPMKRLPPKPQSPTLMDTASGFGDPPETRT

## CC[C@H](C)[C@H](NC(=O)[C@@H](NC(=O)[C@@H]1CCCN1C(=O)[C@H](CCCNC(=N)N)NC(=O)[C@H](CCCNC(=N)NC(=O)NCCCCNC(=O)CCCCCN1\C(=C/C=C/C=C/C2=[N+](CCCCS(=O)(=O)[O-])c3ccccc3C2(C)C)C(C)(C)c2cc(S(=O)(=O)O)ccc21)NC)C(C)(C)c1ccc(O)cc1)C(=O)N[C@@H](C[Si](C)(C)C)C(=O)O [compound 21, N ^α-Methyl-N ^ω-{[4-(N-{6-3H-[2-(5–3H-(1-(4-sulfonatobutyl)-3,3-dimethyl)indol-2-ylidenepent-1,3-dienyl)-3,3-dimethyl-5-sulfo]indol-1-ium-1-yl}hexanoyl)-aminobutyl]aminocarbonyl}Arg-Arg-Pro-β,β-dimethyl-L-Tyr-Ile-β-trimethylsilyl-Ala Tris(hydrotrifluoroacetate)]
NTS2R
  Ki: 0.724 nM

## CCC(=O)NCCCCNC(=O)/N=C(\N)NCCC[C@H](N)C(=O)N[C@@H](CCCNC(=N)N)C(=O)N1CCC[C@H]1C(=O)N[C@@H](Cc1ccc(O)cc1)C(=O)N[C@H](C(=O)N[C@@H](CC(C)C)C(=O)O)[C@@H](C)CC [UR-MK300] (H-[X3]RPYIL-OH)
NTS1R [1]; pK i, 19 as labeled probe, flow cytometry, HT-29 cells, 23 °C, 0.3 nM 19, 120 min
  Ki: 0.141 nM
NTS1R [1]; pK i, 21 as labeled probe, flow cytometry, HT-29 cells, 23 °C, 0.1 nM 21, 180 min
  Ki: 0.0891 nM

## SR142948
NTS1R [1]; 21 as labeled probe
  Hill coefficient of the displacement curve: −0.63 ± 0.02
NTS1R [1]; flow cytometry, HT-29 cells, 23 °C, 0.1 nM 21, 180 min
  pK i, 21 as labeled probe: 10.14 ± 0.08
NTS1R [1]; flow cytometry, HT-29 cells, 23 °C, 0.3 nM 19, 120 min
  pK i, 19 as labeled probe: 9.70 ± 0.1

## COc1cccc(OC)c1-c1cc(C(=O)NC2(C(=O)O)C3CC4CC(C3)CC2C4)nn1-c1ccnc2cc(Cl)ccc12 (centres unmarked) [SR48692]
NTS1R [2]; Reported K i values were converted to pK i values, ref not given
  pK i, literature: 8.07
NTS1R [1]; 21 as labeled probe
  Hill coefficient of the displacement curve: −0.55 ± 0.06
NTS1R [1]; flow cytometry, HT-29 cells, 23 °C, 0.1 nM 21, 180 min, read-out: pK i, 21 as labeled probe (converted)
  Ki: 3.24 nM
NTS1R [1]; flow cytometry, HT-29 cells, 23 °C, 0.3 nM 19, 120 min, read-out: pK i, 19 as labeled probe (converted)
  Ki: 5.62 nM

## neuromedin N: hexapeptide, endogenous NTS1R agonist
NTS1R [2]; ref Skrzydelski et al.
  Ki: 1.9 nM

## COc1ccccc1C1CCN(c2nc(C3(F)CC3)nc3ccc(N(C)CCO)cc23)CC1 [SBI-553]
NTS1R [3]; pEC50(high)
  EC50: 0.0427 nM
NTS1R [3]; pEC50(low)
  EC50: 52.5 nM
NTS1R [3]; read-out: E max (difference between lower and upper plateau)
  Emax at 10 pM: 88%
